# Test results as given in PubChem BioAssay AID624296 (National Center for Advancing Translational Sciences (NCATS), 2012).
# Among all 350,000 compounds or so, about 9,900 (2.8%) were called active. This list was built around the results that the source calls inconclusive (neither active nor inactive); the mix of calls is not that of the screen. Calls come from the whole dose curve; as a rule, active = well fitted activation curve with a large enough effect; inconclusive = small, poorly fitted or top-dose-only effect; inactive = no such curve, though single readings can be large or run the other way. Potencies of inconclusive entries are left out as doubtful fits.
# Assay: A quantitative high throughput screen for small molecules that induce DNA re-replication in MCF 10a normal breast cells. Note: nearly all actives have a fitted effect of over 50% in size.
# Conditions: MCF 10A DNA re-replication, Hoechst nuclear intensity, 48 h; series mostly up to 46.1 µM
# Potency is the fitted concentration of half-maximal effect; tags give direction and shape of the fitted curve.
row,SMILES,Potency
1,O=C(CC1(O)C(=O)Nc2cc(Cl)cc(Cl)c21)c1ccncc1 (stereo unspecified),"inconclusive [activator, single point]"
2,COc1ccc(S(=O)(=O)N2c3cc(C)ccc3OCC2C(C)(C)C)cc1 (stereo unspecified),active: 2.59 µM
3,Cc1cnc(CNC(=O)CC2C(=O)NCCN2Cc2cccc(F)c2F)cn1 (stereo unspecified),inactive
4,C=CCOc1c(Br)cc(/C=N/NC(=O)Cc2ccc(C(F)(F)F)cc2[N+](=O)[O-])cc1OC,"inconclusive [activator, full curve, poor fit]"
5,COc1ccc(N2CCN(C(CNC(=O)COc3ccccc3)c3ccco3)CC2)cc1 (stereo unspecified),inactive
6,Nc1ccccc1C(=O)NNc1ncc(C(F)(F)F)cc1Cl,active: 14.6 µM
7,CCN1CCN(c2c(Cl)cccc2NC(=O)c2cc3ccccc3o2)CC1,"inconclusive [activator, single point]"
8,CCOC1(OCC)C(c2ccc(Cl)cc2)C(C#N)(C#N)C1(OCC)OCC (stereo unspecified),"inconclusive [activator, single point]"
9,O=C(NNC(=S)Nc1ccc(Br)cc1)c1ccc(N2CCOCC2)c([N+](=O)[O-])c1,"inconclusive [activator, partial curve, poor fit]"
10,CC(=O)NC(CSC(CC(=O)c1ccco1)c1ccc(C)cc1)C(=O)O (stereo unspecified),active: 20.6 µM
11,COc1ccccc1NC(=O)c1c(C)oc2c1CCCC2,"inconclusive [activator, partial curve, poor fit]"
12,CCOC(=O)[C@H](CCc1ccccc1)N[C@@H](C)C(=O)N1Cc2ccccc2C[C@H]1C(=O)O,active: 0.116 µM
13,CCN(C(=O)COC(=O)CNC(=O)c1ccccc1C)C1=CCCCC1,inactive
14,CC(=O)Nc1ccc(-c2csc(NNC(=O)c3ccccc3)n2)cc1,"inconclusive [activator, partial curve, poor fit]"
15,CCOC(=O)CSc1ncnc2c1c(-c1ccccc1)cn2-c1ccc(OC)cc1,inactive
16,CC(C)c1[nH]nc2c1C(C(C)C)C(C#N)=C(N)O2 (stereo unspecified),"inconclusive [activator, single point]"
17,CC1=NN(C(=O)c2ccc(C)cc2)C(O)(C(F)(F)OC(F)(F)F)C1 (stereo unspecified),"inconclusive [activator, partial curve, poor fit]"
18,N/C(=N\OC(=O)CSc1ccccc1)c1ccncc1,inactive
19,Cc1ccnc(NC(=O)c2oc3ccccc3c2C)c1,"inconclusive [activator, full curve, poor fit]"
20,COc1ccccc1C1C(C#N)=C(N)Oc2c1c(-c1ccccc1)nn2-c1ccccc1 (stereo unspecified),"inconclusive [activator, single point]"
21,CC1(C)C[C@@H]2C[C@@](C)(CN2C(=O)c2cc(COc3cccc(C(F)(F)F)c3)on2)C1,"inconclusive [activator, full curve]"
22,COc1ccc(/C=N/NC(=S)Nc2cc(S(=O)(=O)N3CCOCC3)ccc2N2CCOCC2)cc1O,"inconclusive [activator, single point]"
23,CCc1cc2c(=O)c(-c3ccc4c(c3)OCCO4)coc2c(CN2CCCCC2C)c1O (stereo unspecified),"inconclusive [activator, single point]"

row,SMILES,Potency
1,Cc1ccc(-n2c3c(c(O)c(-c4ccccc4)c2=O)C(=O)CC(C)(C)C3)cc1,inactive
2,O=C(O)CSc1nnc(-c2cccc(S(=O)(=O)N3CCOCC3)c2)n1-c1cccc(Cl)c1,inactive
3,CCc1cc2c(Sc3nc4ccccc4s3)ncnc2s1,"inconclusive [activator, partial curve, poor fit]"
4,Nc1nnc(-c2ccncc2)s1,inactive
5,COc1ccccc1-c1cnn2c(NC3CCCC3)cc(C)nc12,active: 16.4 µM
6,NS(=O)(=O)c1ccc(NC2=CC(=O)C(=O)c3ccccc32)cc1,"inconclusive [activator, single point]"
7,CCOc1ccc(NC(=S)NNC(=S)Nc2cccc(C(F)(F)F)c2)cc1,"inconclusive [activator, single point]"
8,CCC(=O)N/C(=N/c1nc(C)cc(C)n1)Nc1ccc(C)cc1,"inconclusive [activator, partial curve, poor fit]"
9,Cc1ccc(C(=O)NC(=S)N2CCN(C)CC2)cc1,inactive
10,CN(C(=O)C(C)(C)C)c1ccc(OCC(=O)N2CCc3ccccc3C2)cc1,inactive
11,Cc1cc(NC(=O)CSc2nnnn2C)n(-c2ccccc2)n1,active: 6.51 µM
12,Cc1ccc(S(=O)(=O)N(C)C)cc1NC(=O)COC(=O)/C=C/c1ccc(F)cc1,inactive
13,Cc1nc2ccccc2c2c1CC(C(C)(Cl)Br)O2 (stereo unspecified),inactive
14,CSc1ccccc1NC(=O)CO/N=C(\C)c1cc2ccccc2o1,"inconclusive [activator, single point]"
15,Cc1ccc(S(=O)(=O)N2CCOCC2)cc1NC(=O)c1cc(-c2ccccn2)nc2ccccc12,"inconclusive [activator, partial curve, poor fit]"
16,O=C(COc1ccc(Cl)cc1Cl)c1ccc[nH]1,"inconclusive [activator, partial curve, poor fit]"
17,CCCCN=C1NN=C(c2cc3ccccc3o2)CS1,"inconclusive [activator, partial curve, poor fit]"
18,O=C(CCNC(=O)c1ccccc1)Nc1nc2ccccc2s1,inactive
19,Cc1cc(OC(C)C(=O)N2CCN(c3ccc(F)cc3)CC2)c2c(C)c(C)c(=O)oc2c1 (stereo unspecified),inactive
20,O=C(NC(=S)Nc1ccccc1Br)C1CCCCC1,"inconclusive [activator, single point]"
21,O=C(CN1CCN(Cc2ccc3c(c2)OCO3)CC1)c1c[nH]c2ccccc12,"inconclusive [activator, partial curve, poor fit]"
22,COc1ccc(C(=S)N2CCN(c3cccc(Cl)c3)CC2)c(OC)c1,active: 7.31 µM
23,CC(=O)c1cccc(NC(=O)CN2CCc3cc4c(cc3C2)OCCCO4)c1,"inconclusive [activator, full curve, poor fit]"
